Measured values published in a collection of fitness landscapes (doi:10.1126/science.1257360).
The other results are listed elsewhere or left out.

B1: PhoQ; a variant is named by its letters at X, in order, P23837 (parent)
chain: MKKLLRLFFPLSLRVRFLLATAAVVLVLSLAYGMVALIGYSVSFDKTTFRLLRGESNLFYTLAKWENNKLHVELPENIDKQSPTMTLIYDENGQLLWAQRDVPWLMKMIQPDWLKSNGFHEIEADVNDTSLLLSGDHSIQQQLQEVREDDDDAEMTHSVAVNVYPATSRMPKLTIVVVDTIPVELKSSYMVWSWFIYVLSANLLLVIPLLWVAAWWSLRPIEALAKEVRELEEHNRELLNPATTRELTSLVRNLNRLLKSERERYDKYRTTLTDLTHSLKTPLXXLQXXLRSLRSEKMSVSDAEPVMLEQISRISQQIGYYLHRASMRGGTLLSRELHPVAPLLDNLTSALNKVYQRKGVNISLDISPEISFVGEQNDFVEVMGNVLDNACKYCLEFVEISARQTDEHLYIVVEDDGPGIPLSKREVIFDRGQRVDTLRPGQGVGLAVAREITEQYEGKIVAGESMLGGARMEVIFGRQHSAPKDE

Variants of: B1
Assay: enrichment ratio after two sorts for PhoP signalling (ratio (wild type AVST 3.29)); higher = more functional
Conditions: with PhoP (E. coli)

Point of comparison: TQAL, enrichment ratio 2.31. Against it:
- WYYE — lower, ≤ 0.25
- YPVL — lower, ≤ 0.25
- ICQY — lower, ≤ 0.25
- THTA — lower, ≤ 0.25
- YGTG — lower, ≤ 0.25
- KVPM — lower, ≤ 0.25
- KLTR — lower, ≤ 0.25
- FNLH — lower, ≤ 0.25
- ECYK — lower, ≤ 0.25
- AVIQ — lower, ≤ 0.25
- MRFN — lower, ≤ 0.25
- IQRR — lower, ≤ 0.25
- HGFL — lower, ≤ 0.25
- PPDR — lower, ≤ 0.25
- QTCG — lower, ≤ 0.25
- CFTR — lower, ≤ 0.25
- YRFD — lower, ≤ 0.25
- LLWN — lower, ≤ 0.25
- LSQK — lower, ≤ 0.25
- VGHT — lower, ≤ 0.25
- MEYH — lower, ≤ 0.25
- WYPN — lower, ≤ 0.25
- WTTW — lower, ≤ 0.25
- MRRC — lower, ≤ 0.25
- KCAL — lower, ≤ 0.25
- ESHS — lower, ≤ 0.25
- MRLI — lower, ≤ 0.25
- ASGQ — lower, ≤ 0.25
- MEYM — higher, 7.39
- TINL — higher, 9.31
- MMVP — lower, ≤ 0.25
- HAIG — lower, ≤ 0.25
- RHDW — lower, ≤ 0.25
- VGRP — lower, ≤ 0.25
- QMPC — lower, ≤ 0.25
- HPRQ — lower, ≤ 0.25
- KCAK — lower, ≤ 0.25
- DNIR — lower, ≤ 0.25
- VTAE — lower, ≤ 0.25
- VQWK — lower, ≤ 0.25
- LLMA — higher, 3.19
- LNQT — lower, ≤ 0.25
- SHDE — lower, ≤ 0.25
- AAEN — lower, ≤ 0.25
- FWCE — lower, ≤ 0.25
- LCCT — lower, ≤ 0.25
- EDTP — lower, ≤ 0.25
- DVDF — lower, ≤ 0.25
- SMKM — lower, ≤ 0.25
- PNES — lower, ≤ 0.25
- GHMH — lower, ≤ 0.25
- QRRT — lower, ≤ 0.25
- NHFH — lower, ≤ 0.25
- NPHI — lower, ≤ 0.25
- QDPT — lower, ≤ 0.25
- SWFG — lower, ≤ 0.25
- VQNA — lower, ≤ 0.25
- YHYC — lower, ≤ 0.25
- YKEH — lower, ≤ 0.25
- MCDH — lower, ≤ 0.25
- WIFV — lower, ≤ 0.25
- RDHV — lower, ≤ 0.25
- HTHH — lower, ≤ 0.25
- QCNQ — lower, ≤ 0.25
- TSDT — lower, ≤ 0.25
- DFFY — lower, ≤ 0.25
- NWRH — lower, ≤ 0.25
- SKKE — lower, ≤ 0.25
- KTAL — lower, ≤ 0.25
- TKGN — lower, ≤ 0.25
- YSVR — lower, ≤ 0.25
- DVAW — lower, ≤ 0.25
- MMFN — lower, ≤ 0.25
- KIML — lower, ≤ 0.25
- APFT — lower, ≤ 0.25
- SAYA — lower, ≤ 0.25
- TFYN — lower, ≤ 0.25
- GIAE — lower, ≤ 0.25
- YFKK — lower, ≤ 0.25
- HKWM — lower, ≤ 0.25
- EKYI — lower, ≤ 0.25
- RSTQ — lower, ≤ 0.25
- YRVV — lower, ≤ 0.25
- KCCK — lower, ≤ 0.25
- LMSR — lower, ≤ 0.25
- HVGR — lower, ≤ 0.25
- SHTW — lower, ≤ 0.25
- SIDI — lower, ≤ 0.25
- MRCH — lower, ≤ 0.25
- KHLH — lower, ≤ 0.25
- VDNN — lower, ≤ 0.25
- EQSS — lower, ≤ 0.25
- NKFW — lower, ≤ 0.25
- CALF — lower, ≤ 0.25
- HSRL — lower, ≤ 0.25
- QMFS — lower, ≤ 0.25
- SFEA — lower, ≤ 0.25
- KPCF — lower, ≤ 0.25
- AWES — lower, ≤ 0.25
- LDTE — lower, ≤ 0.25
- ESPI — lower, ≤ 0.25
- KVIP — lower, ≤ 0.25
- PLER — lower, ≤ 0.25
- WYDC — lower, ≤ 0.25
- VSHW — lower, ≤ 0.25
- SPPY — lower, ≤ 0.25
- FPET — lower, ≤ 0.25
- HQEQ — lower, ≤ 0.25
- TCGR — lower, ≤ 0.25
- LHTG — lower, ≤ 0.25
- GNMI — higher, 46.4
- EGMA — lower, ≤ 0.25
- EHFM — lower, ≤ 0.25
- QSGD — lower, ≤ 0.25
- ANSK — lower, ≤ 0.25
- QCYG — lower, ≤ 0.25
- FWSN — lower, ≤ 0.25
- KKCR — lower, ≤ 0.25
- VCWA — lower, ≤ 0.25
- TMQE — lower, ≤ 0.25
- CKSI — lower, ≤ 0.25
- HWAW — lower, ≤ 0.25
- LLWR — lower, ≤ 0.25
- MHAF — lower, ≤ 0.25
- AGGT — lower, ≤ 0.25
- DYVR — lower, ≤ 0.25
- LCKL — lower, ≤ 0.25
- SVYQ — lower, ≤ 0.25
- WWLP — lower, ≤ 0.25
- VATT — lower, ≤ 0.25
- ADAI — higher, 4.82
- KIRM — lower, ≤ 0.25
- RARK — lower, ≤ 0.25
- VVCK — lower, ≤ 0.25
- AYKD — lower, ≤ 0.25
- DWNR — lower, ≤ 0.25
- SKMV — higher, 14.3
- DISD — lower, ≤ 0.25
- PINI — lower, ≤ 0.25
- RSDP — lower, ≤ 0.25
- YAIW — lower, ≤ 0.25
- NPMH — lower, ≤ 0.25
- YLPF — lower, ≤ 0.25
- IISN — lower, ≤ 0.25
- PFWL — lower, ≤ 0.25
- DFPN — lower, ≤ 0.25
- YYWI — lower, ≤ 0.25
- HFWK — lower, ≤ 0.25
- MSKH — lower, ≤ 0.25
- IVTS — lower, ≤ 0.25
- SQWM — lower, ≤ 0.25
- MRPC — lower, ≤ 0.25
